# The other results are listed elsewhere or left out. Many values rest on one well or one pass, so single values are uncertain.
# Tested on: WM451Lu
# Test: cell count relative to DMSO control; melanoma cells; higher = more viable cells
# Conditions: library dose: standard library concentration; 72 h
# 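Also: cells treated in 1,536-well plates, then fixed and DAPI-stained, with nuclei counted from automated high-throughput microscope images.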
row,SMILES,cell count [%]
1,"NC(=O)c1ccc(N(C(N)=O)c2c(F)cccc2F)nc1-c1ccc(F)cc1F + COc1ccc(COc2ccc(Cc3cnc(N)nc3N)cc2OC)cc1 [GW2580] (first compound 2 µM, partner dose 5 µM)",108
2,"CC(C)(C)c1cnc(CSc2cnc(NC(=O)C3CCNCC3)s2)o1 + O=C(O)C(=O)Nc1sc2c(c1C(=O)O)CCNC2 [TCS401] (first compound 0.05 µM, partner dose 8.33333 µM)",89.2
3,"NC(=O)c1ccc(N(C(N)=O)c2c(F)cccc2F)nc1-c1ccc(F)cc1F + Nc1ncn([C@H]2C[C@H](O)[C@@H](CO)O2)c(=O)n1 [decitabine] (first compound 2 µM, partner dose 0.5 µM)",92.5
4,"CCCCCCCCc1ccc(CCC(N)(CO)CO)cc1 [fingolimod] + CS(=O)(=O)CCNCc1ccc(-c2ccc3ncnc(Nc4ccc(OCc5cccc(F)c5)c(Cl)c4)c3c2)o1 [lapatinib] (first compound 10 µM, partner dose 4 µM)",2.12
5,"CCCCCCCCc1ccc(CCC(N)(CO)CO)cc1 [fingolimod] + CN1CCN(c2ccc3nc(-c4c(N)c5c(F)cccc5[nH]c4=O)[nH]c3c2)CC1 [Dovitinib] (first compound 10 µM, partner dose 0.5 µM)",2.49
6,"CCCCCCCCc1ccc(CCC(N)(CO)CO)cc1 [fingolimod] + CC(=O)c1c(C)c2cnc(Nc3ccc(N4CCNCC4)cn3)nc2n(C2CCCC2)c1=O [palbociclib] (first compound 10 µM, partner dose 0.2 µM)",5.48
7,"CCCCCCCCc1ccc(CCC(N)(CO)CO)cc1 [fingolimod] + COCC[n+]1c2c(n(Cc3cnccn3)c1C)C(=O)c1ccccc1C2=O [YM155] (first compound 10 µM, partner dose 0.002 µM)",21.6
8,"CCCCCCCCc1ccc(CCC(N)(CO)CO)cc1 [fingolimod] + C=C(c1ccc(C(=O)O)cc1)c1cc2c(cc1C)C(C)(C)CCC2(C)C [Bexarotene] (first compound 10 µM, partner dose 10 µM)",3.47
9,"NC(=O)c1ccc(N(C(N)=O)c2c(F)cccc2F)nc1-c1ccc(F)cc1F + C[C@]1(O)C[C@@H](c2nc(-c3ccc4ccc(-c5ccccc5)nc4c3)c3c(N)nccn32)C1 [OSI906] (first compound 2 µM, partner dose 2 µM)",89.5
10,"NC(=O)c1ccc(N(C(N)=O)c2c(F)cccc2F)nc1-c1ccc(F)cc1F + CNC(=O)c1cc(Oc2ccc(NC(=O)Nc3ccc(Cl)c(C(F)(F)F)c3)cc2)ccn1 [sorafenib] (first compound 2 µM, partner dose 2 µM)",89.7
11,"NC(=O)c1ccc(N(C(N)=O)c2c(F)cccc2F)nc1-c1ccc(F)cc1F + O=C(O)C(=O)Nc1sc2c(c1C(=O)O)CCNC2 [TCS401] (first compound 2 µM, partner dose 8.33333 µM)",82.2
12,"CCCCCCCCc1ccc(CCC(N)(CO)CO)cc1 [fingolimod] + Nc1cccc2c1CN(C1CCC(=O)NC1=O)C2=O [lenalidomide] (first compound 10 µM, partner dose 5 µM)",58
13,"NC(=O)c1ccc(N(C(N)=O)c2c(F)cccc2F)nc1-c1ccc(F)cc1F + Cc1cc(Nc2cc(N3CCN(C)CC3)nc(/C=C/c3ccccc3)n2)n[nH]1 [ENMD2076] (first compound 2 µM, partner dose 0.2 µM)",106

# From the supplement of paper PMC4604168 (melanoma cell lines)
